Test results published in the supplement of paper PMC10126150.
Sequences with one replicate were seen in a single cluster, so their values are uncertain.

Test system: ATP
Assay: switch fluorescence ratio, 500 uM ATP over buffer (Cy3 cluster intensity, sum of 5 cycles each) (fold (ratio)); higher = stronger signal-on switching upon ATP binding; sequences stand for … in TCGTCGGCAGCGTCAGATGTGTATAAGAGACAGTTTTTTTTTTTTTTTTTTTTTTTTT…TC
Conditions: aptamer strand: ATP DNA aptamer (quencher-CACCTGGGGGAGTATTGCGGAGGAAGG + anchor), 100 nM annealed; ATP concentration: 500 uM; one replicate
Method in brief: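 Clusters carrying Cy3-labelled switching strands on a modified Illumina MiSeq flow-cell were annealed to 100 nM quencher-labelled ATP aptamer and imaged in selection buffer. They were imaged again after 15 min with 500 uM ATP at 22 °C, over five buffer/ATP cycles with NaOH stripping and re-annealing in between. For each cluster, the fluorescence ratio is the summed Cy3 intensity of the target cycles divided by that of the buffer cycles, averaged per switch-domain sequence. Clusters outside 100-1000 RFU were left out.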
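Further: ATP exposure 15 min at 22 °C before imaging.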

Sequence | switch fluorescence ratio
TCAATTATTC | 1.01
GCGTTAGGGA | 0.992
TCGGTAGCT | 1.03
CCACTCGTTG | 1.01
TCGCTCGGGG | 1.03
CCTGGTACGA | 1.12
GTAGTTGAAC | 0.996
CTGTCAAAG | 0.968
TGGAAAAGCA | 1.05
TGCACTGCAT | 1.04
AAGATACGAC | 1.59
TGGTCAAAAT | 0.966
GAGGGACAGG | 1.02
CTGCGTAATA | 3.68
TTATCACCTC | 1.03
CGAGCACGCC | 1.06
GAGAATGGTT | 1.01
AGATATTATC | 1.07
GTGAAGGCAG | 1
CAGCTCGGGG | 0.986
GCAATTAAAA | 0.928
AGGATGTGGT | 0.96
TGCTCAACGC | 1.04
CGGAATTTAG | 1.01
GCCCCTCGAA | 1.05
AGATGCAACC | 1.09

Sequence | switch fluorescence ratio
ACCCCGAGC | 1.16
GACCGTATCT | 1.08
TTTACTGTGT | 0.93
CCGTTCTTA | 1.07
GTTGTCTTC | 0.989
GTTATGGGAG | 1
GGGGCTACGG | 1.01
ATGATAGTAG | 1
TAGGATA | 0.994
TCGTGGTTCA | 0.989
CCGGGGCAGA | 1.28
CAGTATAGCT | 1.04
TCCCTTCGGT | 1.05
ATTTTTCAGG | 0.988
TTTGTACCTA | 1.03
GATTGTCAAC | 0.994
GTTCGGGGCA | 0.987
TGAGGCTACT | 1.09
TGTTAGTT | 0.984
TCTCCGTACG | 2.86
CGGCAGTGGG | 0.971
GGACCGAGCC | 1.42
GGAGCTGCTG | 0.977
AATGAGGAA | 0.986
TTTGACTATT | 0.982
GGTACGATCC | 1.02

Sequence | switch fluorescence ratio
ACCCTCGGGA | 0.972
CTTTTAATGT | 1.03
ACCCGTGTGG | 1.07
ATCACCAGG | 2.29
GTTGTACTAG | 0.964
GAAATTCTGC | 0.997
ATACAATGTG | 1.04
TTAAGTTCCG | 1.05
TCGTTCACGG | 1
AACTGGACAA | 1.07
ACTTCATGGT | 1
GGGCGGCTTT | 0.973
CACGAATTG | 0.989
AATCGGTTTC | 0.988
ACGAGTGGTT | 1.07
CCCGATATAG | 1.92
AGTTACCGCT | 1.03
TTCGTAGGGA | 0.986
GGACTAAACA | 1.04
CGCGAATCTT | 0.992
CTACGGAATT | 3.21
CATTCGAGCC | 1.01
TGTTGAGGGA | 0.926
CTATTCCGCT | 1.35
TTGTTAAGGA | 1.13
ATTCTCAATT | 1.01

Sequence | switch fluorescence ratio
CCGACGAGTC | 2.35
TGATGGAA | 0.948
GGCCTTTCTT | 0.991
AGGGTGAGA | 0.99
GGAAATTAGC | 0.927
AACACAGGGG | 1.93
ATACAAATGT | 1
TTAACACTCT | 0.948
TTTTTCGTGC | 0.991
TCGCTACAA | 1.02
ATAGATTTTG | 1.01
AACGGCTGTT | 1
CAGGGGCATG | 1.22
CTGATACGTT | 0.95
CTCAATAT | 1.2
TCAAAGTAAC | 1.02
AACTATGTTT | 1.01
ATGGGGGTG | 1.1
TATTTAAGGA | 0.991
CTTAGACGTG | 1.02
TTAAGTCTGG | 0.96
GATAAGAGGA | 0.994
AACTTAGTG | 1
AAACTCACAT | 1.17
AGGGAACCTC | 0.969
GATGTATGG | 0.987

Sequence | switch fluorescence ratio
AGCTACGTGG | 1.06
ACGGTGAGCG | 0.989
TCAACGGGTC | 1.08
GGACCACG | 0.95
TTATAACTTC | 1.1
AAAGACCCCT | 1.04
TAGTGGTCCG | 0.914
TGGGAGGCTA | 0.977
TCGGAAACTT | 1.05
ATTTCGGCGC | 0.996
ATTCTTAGGT | 0.992
GATGCCCTTG | 0.988
TGTAGTAGGC | 0.938
TGCTGCATA | 1.02
AGTTGGAAGT | 1
GTTGAGAAGC | 1.05
ACACCTGTAA | 0.994
TGGGAGACCG | 1.03
ATGGTCAATT | 0.949
TACAGGTTCA | 0.945
ACCGGGTTG | 0.998
GAAAGGGCCA | 0.972
ATAGAGGTCT | 1.01
TAGGGTTAGG | 0.961
ATTATATTGG | 0.958
CACATTAGTT | 1.07

Sequence | switch fluorescence ratio
CTAAGGCTTC | 1.01
TTTCTAGCTA | 1.05
TTACATGGGG | 0.992
ACAGTAATTC | 1.27
CATGCATATC | 1.52
GTAATATTGA | 1.01
CCTGACTGAG | 1.07
GGGGAGTGGT | 1.03
GTCGCCGTTT | 0.973
GATTTGCGCA | 0.957
GTGAAAGTGA | 0.934
TTCTTACGGC | 0.978
ATAGAGGTTG | 1
CGGGCATCGC | 1.01
AACGGTTAAG | 1.02
TTAATACGTC | 0.99
TCGCGATGTT | 1.03
TGTCCTGATT | 1.01
GCCTGTTGAC | 1.4
ACGTACAACG | 1.28
CTATAAAGGG | 0.961
ACAGAGCTAG | 1.06
GGCGGCGTC | 0.975
CATGGGGCAG | 1
CTTGAATCAA | 0.983
TTTGTAATCC | 1.38

Sequence | switch fluorescence ratio
TGAGCACCAC | 1.03
AGCATTATCC | 1.3
TGGCGCGA | 1.04
ACGAATACGT | 1.07
AGGGTCCATA | 0.979
TTATTTTA | 0.97
AGCCTGTCGT | 1.02
ATCAAAGTGT | 0.986
GGGCAATCAA | 1.02
TTTTTCAAAG | 0.967
GGTCCTTAG | 1.06
AGGGAATCGA | 1.02
GTATACCACT | 1.06
CGCTCGGGGC | 1.02
TGTTGTTCGT | 0.998
GACAGCTTTT | 0.999
CGTCTATTGG | 1.03
GTTCAAGATT | 1.02
ATCTTTCCAT | 1.03
ACGCAGGGGT | 1.15
CAGGGCTGCA | 1.01
GCGCTATTGA | 1.02
GCATTTAGCT | 0.987
ATGCGCTTTA | 1.04
TTTCCACACT | 1.01
TTACGGTTGA | 1.03

Sequence | switch fluorescence ratio
GTAACAAAGG | 1.05
CGCCAGCGGC | 1.03
CTGTTTGTTA | 0.977
TGGCAGCTTA | 1.02
GGTCCCCA | 0.998
TGGGGGCGCT | 1.01
TGCACGAAG | 1.03
CTAGCGGCGT | 1.02
ATACTTGACG | 1.08
TGGTGGGCGT | 0.995
GTTACACTC | 0.994
CGCGAGTGTC | 1.07
ACTTGCATTT | 0.996
TGGGCATCTT | 1.03
ACGAAAACCG | 1.03
TTGTTAAAAA | 0.992
TACTATGCTC | 1.05
CGGTAGATG | 0.978
TCGCTGATAG | 1.77
